The values that follow come from paper PMC4336329 (PLoS ONE, 2015).

About 14,000 (4.5%) of roughly 310,000 compounds showed an effect of 50% or more. Effects have a minus sign here. Some of the results follow.
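Also: peak tail current of the secondary pulse compared with the same well before compound.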

For the experiment, the target named is human ether-à-go-go-related gene (hERG) potassium channel (human, UniProt Q12809). The experiment can be described thus: primary screen, population patch clamp on CHO cells stably expressing hERG.
Sequence of human ether-à-go-go-related gene (hERG) potassium channel (Q12809 whole entry, looked up): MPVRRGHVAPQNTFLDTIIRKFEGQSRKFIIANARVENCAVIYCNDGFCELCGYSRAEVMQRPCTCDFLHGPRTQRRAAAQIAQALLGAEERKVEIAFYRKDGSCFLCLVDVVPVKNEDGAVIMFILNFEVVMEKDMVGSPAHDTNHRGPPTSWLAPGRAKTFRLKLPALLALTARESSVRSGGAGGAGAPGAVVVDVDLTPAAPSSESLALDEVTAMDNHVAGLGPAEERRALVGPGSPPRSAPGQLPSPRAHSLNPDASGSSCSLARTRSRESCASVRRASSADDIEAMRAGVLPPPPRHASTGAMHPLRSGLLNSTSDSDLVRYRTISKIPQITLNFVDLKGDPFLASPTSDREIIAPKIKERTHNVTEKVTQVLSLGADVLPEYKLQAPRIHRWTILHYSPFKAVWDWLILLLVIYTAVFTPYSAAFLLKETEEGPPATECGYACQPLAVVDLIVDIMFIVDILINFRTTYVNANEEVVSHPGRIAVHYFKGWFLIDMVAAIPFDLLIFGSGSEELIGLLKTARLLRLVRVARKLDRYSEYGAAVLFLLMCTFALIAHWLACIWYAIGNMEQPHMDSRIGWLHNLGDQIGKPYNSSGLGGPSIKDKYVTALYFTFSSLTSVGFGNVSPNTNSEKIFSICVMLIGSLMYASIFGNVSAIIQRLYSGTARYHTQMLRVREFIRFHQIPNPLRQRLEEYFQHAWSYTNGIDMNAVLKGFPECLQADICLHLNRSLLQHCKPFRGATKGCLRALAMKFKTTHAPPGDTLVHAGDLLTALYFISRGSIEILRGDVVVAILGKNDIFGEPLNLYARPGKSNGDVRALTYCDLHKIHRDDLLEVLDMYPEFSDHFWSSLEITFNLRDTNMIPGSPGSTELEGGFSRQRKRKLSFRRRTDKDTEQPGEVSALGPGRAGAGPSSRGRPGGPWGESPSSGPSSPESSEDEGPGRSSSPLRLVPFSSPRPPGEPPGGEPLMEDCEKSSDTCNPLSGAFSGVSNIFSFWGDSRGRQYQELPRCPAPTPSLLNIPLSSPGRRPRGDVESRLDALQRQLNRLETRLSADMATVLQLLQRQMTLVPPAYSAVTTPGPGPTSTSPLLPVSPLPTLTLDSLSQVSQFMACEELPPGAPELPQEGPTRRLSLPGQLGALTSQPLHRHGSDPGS
As for `Cc1ccc(-n2c(C)cc(C=C3C(=O)CC(C)(C)CC3=O)c2C)cc1`, the “hERG current change (%, negative = inhibition) at 10uM” value came out at 0.298%.

With `CCOC(=O)c1ccc(NC(=O)CN2C(=O)CCC2=O)cc1`, the “hERG current change (%, negative = inhibition) at 10uM” value was 8.48%. The figure for `Cc1cc(NC(=O)c2ccc(F)cc2)n(C)n1` is 17.3%; for `O=C(Nc1ccccc1)c1ccccc1OCc1ccc(F)cc1` it is 10.1%; for `Cc1sc2nc(SCC(=O)N(C)Cc3ccccc3)n(-c3ccccc3)c(=O)c2c1C` it is 7.29%. `COc1ccc(Cl)cc1NC(=O)CCn1c(=O)oc2ccccc21`: the “hERG current change (%, negative = inhibition) at 10uM” value is reported as 5.39%.

`Cc1ccc(NC(=S)NNC(=S)NCc2ccccc2)cc1`: the “hERG current change (%, negative = inhibition) at 10uM” value came out at 15.4%. The figure for `CCN1C(=O)[C@H]2[C@@H](c3ccc(-c4cc(C(C)=O)cs4)cc3)N3CCC[C@@]3(C(=O)OC)[C@H]2C1=O.O=C(O)C(F)(F)F` is 8.98%; for `Cc1cccc(-n2c(O)c(/C=N/NC(=O)c3ccccc3Cl)c3ccccc3c2=O)n1` it is 3.15%. As for `CCOc1cc(N2CCOCC2)c(OCC)cc1NC(=O)COC(=O)c1cc2ccccc2cc1O`, the figure is -11.7%; as for `CC1(C)O[C@@H]2[C@H](O1)[C@@H](CO)O[C@H]2n1c(N2CCCCC2)nc2c(N)ncnc21`, -2.99%; as for `CCOC(=O)c1c(NC(=O)COC(=O)Cc2n[nH]c(=O)c3ccccc23)sc(C(=O)N(C)C)c1C`, -2.24%.

`Cc1cc(=O)oc2cc(NC(=O)CC3(CC(=O)O)CCCC3)ccc12`: the “hERG current change (%, negative = inhibition) at 10uM” value amounted to 14.7%.

In the case of `COC(=O)c1ccc(NC(=O)C[n+]2ccccc2)cc1.[Cl-]`, the “hERG current change (%, negative = inhibition) at 10uM” value was determined as 11.9%. `Cl.Nc1nonc1C(=O)NCCNCc1cc(Br)ccc1OCc1ccc(F)cc1`: the “hERG current change (%, negative = inhibition) at 10uM” value is listed as -38.2%. On to `O=C(CN1C(=O)C2C3CC(C(Br)C3Br)C2C1=O)N1CCOCC1` (stereo not shown), for which the “hERG current change (%, negative = inhibition) at 10uM” value stood at 6.54%. For the molecule `CCOC(=O)C(=O)N/N=C/c1ccc(F)cc1`, the “hERG current change (%, negative = inhibition) at 10uM” value was 0.391%. With `Cc1cc(=O)oc2cc(OCC(=O)OCC(=O)Nc3ccccc3F)ccc12`, the “hERG current change (%, negative = inhibition) at 10uM” value turned out to be 8.41%. As for `CCC1CCCCN1CCCNC(=O)CSc1nc2nc(C)c(Cc3ccc(C)cc3)c(C)n2n1` (stereo not shown), the figure is -47.8%; as for `CCCCCCCCC[n+]1cccc2c3ccccc3ccc21.[Br-]`, -84.8%; as for `O=C1CSC(=NC2CCCCC2)N1`, 14.1%. The figure for `O=C(O)CC(CC(=O)Nc1ccccc1C(=O)O)c1ccccc1` (stereo not shown) is 3.3%; for `CSCC[C@H](NC(=O)OC(C)(C)C)C(=O)N1CCC(C(=O)N[C@H](C(=O)O)C(C)C)CC1` it is -3.7%. The figure for `Cc1ccc(CNC(=O)C2CC(c3ccc(C(F)(F)F)cc3)=NO2)o1` (stereo not shown) is 3.13%; for `CCN(CC(=O)Nc1cc(Cl)ccc1C)C(=O)CCOc1ccccc1C` it is 18.4%; for `O=C(CSCc1ccccc1)N1CCN(C(=O)c2ccco2)CC1` it is -14.3%. Consider `Cn1nnnc1SCC(=O)NC1CCCc2ccccc21` (stereo not shown), for which the “hERG current change (%, negative = inhibition) at 10uM” value came to 22.9%. As to `COCC(=O)NC(c1ccccc1)c1ccccc1`, the “hERG current change (%, negative = inhibition) at 10uM” value is on record as -4.82%. As for `CC(=O)Nc1ccc(S(=O)(=O)NC2=NCN(C)CN2)cc1`, the figure is 2.76%; as for `Cc1nn(Cc2ccccc2)c(C)c1/C=N/NC(=O)c1cccnc1`, -1.16%. As for `COC(=O)c1sc2ccccc2c1NC(=O)c1cccs1`, the figure is -6.7%. With `CC1CN(S(=O)(=O)c2ccc(C(=O)NCCCn3ccnc3)cc2)CC(C)O1` (stereo not shown), the “hERG current change (%, negative = inhibition) at 10uM” value was 13.7%. `CCc1nnc(NC(=O)c2cccc(S(=O)(=O)N3CCN(C(C)=O)CC3)c2)s1`: the “hERG current change (%, negative = inhibition) at 10uM” value is recorded as -7.3%. As for `O=C(NC(Cc1ccccc1)C(=O)O)c1ccc(S(=O)(=O)N2CCOCC2)cc1` (stereo not shown), the figure is -3.75%; as for `Cc1c(C(=O)C(=O)N2CC=C(c3ccccc3)CC2)c2ccccc2n1C`, -4.57%; as for `Cc1cc(F)ccc1S(=O)(=O)Nc1ccccc1C(=O)Nc1ncn[nH]1`, -9.1%. Take `N#C/C(=C\c1ccccc1[N+](=O)[O-])C(=O)Nc1ccc(S(N)(=O)=O)cc1`: the “hERG current change (%, negative = inhibition) at 10uM” value is given as -7.82%. The figure for `O=c1[nH]c2ccccc2nc1Cc1ccccc1` is -0.877%; for `Cc1ccc(CSc2ccc(S(=O)(=O)N3CCOCC3)cn2)cc1` it is -10.2%. The figure for `CCCCCCC1(C)NC(=O)N(C(C)C(=O)Nc2ccc(N3CCOCC3)cc2)C1=O` (stereo not shown) is -15.6%.

With `COc1ccc(S(=O)(=O)N2CCCC(C(=O)NCc3ccccn3)C2)cc1` (stereo not shown), the “hERG current change (%, negative = inhibition) at 10uM” value was -4.88%.

On to `CCN1CCN(C(=O)Cc2c(C)n(C(=O)c3ccc(Cl)cc3)c3ccc(OC)cc23)CC1.Cl`, for which the “hERG current change (%, negative = inhibition) at 10uM” value is given as -38.6%. For the molecule `O=C(O)CCCNC(=O)OCc1ccccc1`, the “hERG current change (%, negative = inhibition) at 10uM” value amounted to 2.02%. Consider `Fc1ccc(N=c2ssnc2Cl)c(F)c1`, for which the “hERG current change (%, negative = inhibition) at 10uM” value was 22.1%. As for `CCN(CC)S(=O)(=O)c1ccc(/C=C/C(=O)OCC(=O)NNC(=O)c2ccc(OC)cc2)cc1`, the figure is -7.77%. The figure for `CC(Sc1nnc(C2CC2)n1C1CC1)C(=O)c1ccc(F)cc1` (stereo not shown) is -3.15%; for `Cc1csc(N2CCCC2=O)n1` it is 17.1%; for `Cc1ccc(CNC(=O)c2nccnc2C(=O)O)cc1` it is 10.9%. As for `CCOC(=O)c1cnn(-c2ccc([N+](=O)[O-])cc2)c1N`, the figure is 1.43%; as for `Cc1ccc(NC(=O)Cn2c(=O)oc3cc(S(=O)(=O)N4CCC(C)CC4)ccc32)cc1C`, -3.11%.

Turning to `CN(C)/C=C(\C(=O)c1ccccc1)c1nnnn1-c1ccc(F)cc1`, the “hERG current change (%, negative = inhibition) at 10uM” value came out at 9.72%. The figure for `CCCCn1c(C2CCCCC2)nc2cc3[nH]c(=O)c(C(C)C)nc3cc21` is -12.3%.

In the case of `C=CCN1C(=O)C(Cc2ccc(SC(F)F)cc2)SC1=Nc1ccc(C(=O)O)cc1` (stereo not shown), the “hERG current change (%, negative = inhibition) at 10uM” value came to 1.77%. The figure for `COc1cc(OC)c(/C=N/NC(N)=S)cc1Br` is 20.3%; for `O=c1[nH]ncn1-c1ccccc1` it is 22%. As to `O=C(Nc1ccc(C2CCCCC2)cc1)C1CCN(c2ncccn2)CC1`, the “hERG current change (%, negative = inhibition) at 10uM” value was 22.8%. The figure for `CC(=O)Nc1cccc(/C(C)=N/NC(=O)c2ccc(CN3CCOCC3)cc2)c1` is 7.7%.

Turning to `Cn1c(Cn2c(=O)sc3ccccc32)nnc1SCC(=O)Nc1ccc(Cl)cc1`, the “hERG current change (%, negative = inhibition) at 10uM” value is recorded as -2.98%.

As to `COc1ccccc1OC(C)C(=O)Nc1ccc(S(=O)(=O)N2CCN(C)CC2)cc1` (stereo not shown), the “hERG current change (%, negative = inhibition) at 10uM” value is recorded as 3.85%. Consider `O=[N+]([O-])c1cc(Cl)ccc1-c1nc(-c2ccccc2)no1`, for which the “hERG current change (%, negative = inhibition) at 10uM” value is 6.74%. With `CCN1CCCC1CNC(=O)Cn1cccc1C(=O)c1ccccc1` (stereo not shown), the “hERG current change (%, negative = inhibition) at 10uM” value is on record as -3.53%. The figure for `O=C(CSc1nc2ccccc2[nH]1)Nc1ccccc1N1CCOCC1` is -8.81%. The figure for `Cc1cccc(NC(=S)N(Cc2cccs2)Cc2cc3cc(C)cc(C)c3[nH]c2=O)c1` is 23%; for `COc1ccc(-c2cc(C)no2)cc1S(=O)(=O)N1CCCN(Cc2ccc(F)cc2)C1` it is -16.9%; for `CCOc1ccccc1CN1CCNC(=O)C1CC(=O)NCc1nccn1CC` (stereo not shown) it is 18.8%. For `Cc1cccc(NC(=O)c2ccc(F)c(S(=O)(=O)N3CCC4(CC3)OCCO4)c2)c1`, the “hERG current change (%, negative = inhibition) at 10uM” value is listed as -11.1%. Take `COc1cc(NS(=O)(=O)c2ccc(NC(=O)c3ccc(F)cc3)cc2)ncn1`: the “hERG current change (%, negative = inhibition) at 10uM” value amounted to 8.57%. The figure for `Cc1ccccc1C(=O)N1CCC(C(=O)NC2CCCCCC2)CC1` is 16.9%; for `COC(=O)c1ccc(-n2c(CCC(=O)O)ccc2-c2ccccc2)cc1` it is 15.5%. The figure for `Cc1cccc2c1N(CCOc1ccccc1)C(=O)C2=O` is 8.87%; for `CCOc1ccc(S(=O)(=O)NCc2ccccc2OC)cc1` it is -5.8%; for `CC(C)(C)NC(=O)C(=O)NNC(=O)COc1ccc(Br)cc1` it is 5.23%. With `COc1cc(NC(=O)Cn2cnc3sc(C)c(S(=O)(=O)N4CCOCC4)c3c2=O)cc(OC)c1OC`, the “hERG current change (%, negative = inhibition) at 10uM” value was found to be 32.7%. With `CCOc1cc(C(=O)N(C)c2ccccc2)cc(OCC)c1OCC`, the “hERG current change (%, negative = inhibition) at 10uM” value is on record as -10.7%. As for `CCN1CCCc2cc(CN(CCN3CCOCC3)C(=S)Nc3ccc(OC)cc3)ccc21`, the figure is 7.64%; as for `C=CCNC(=O)c1cc(-c2ccncc2)nc2c(C)cc(C)cc12`, -43.5%. As for `Cc1sc2ncnc(NCC(O)c3ccc([N+](=O)[O-])cc3)c2c1C` (stereo not shown), the figure is -71.6%. On to `COc1ccc(S(=O)(=O)N(C)C)cc1NC(=O)CSc1nc(N)cc(N)n1`, for which the “hERG current change (%, negative = inhibition) at 10uM” value was 18.1%. Consider `CC1CCc2nc(NC(=O)Nc3ccc4c(c3)OCO4)sc2C1` (stereo not shown), for which the “hERG current change (%, negative = inhibition) at 10uM” value came out at 2.04%.

With `CCOc1cc(CNC(=O)CCCn2c(=O)c3cccn3c3cccnc32)cc(OCC)c1OCC`, the “hERG current change (%, negative = inhibition) at 10uM” value is given as -42.3%. `CCc1ccnc(NC(=O)Nc2ccc(OCc3ccccc3)cc2)c1`: the “hERG current change (%, negative = inhibition) at 10uM” value came to 16%. As for `Cc1ccc(-n2c(C)cc(C(=O)CN3CCOCC3)c2C)cc1C`, the figure is -30.1%; as for `Cc1ccc(S(=O)(=O)Nc2ccc(N3CCOCC3)nc2)cc1`, 7.11%. With `COC(CNC(=O)Cn1nc(Cc2ccncc2)c2ccccc2c1=O)OC`, the “hERG current change (%, negative = inhibition) at 10uM” value came to 18.9%.

With `CCOC(=O)C1(Cc2cccc(OC)c2)CCN(C(C)COC)CC1` (stereo not shown), the “hERG current change (%, negative = inhibition) at 10uM” value is 5.9%. As for `COc1cc(/C=C2/NC(=O)N(c3cccc(Cl)c3)C2=O)ccc1O`, the “hERG current change (%, negative = inhibition) at 10uM” value worked out at 17.5%. The figure for `O=S(=O)(c1cccs1)N1CCN(c2ccc(F)cc2)CC1` is -43.1%. With `Cc1cc(NC(=O)CCC(=O)N(CC(=O)NC2CCCC2)c2cccc(F)c2)no1`, the “hERG current change (%, negative = inhibition) at 10uM” value is given as -3.17%.
